{"source": "PubChem BioAssay AID504706", "about": "(National Center for Advancing Translational Sciences (NCATS), 2011)", "note": "Out of some 320,000 compounds screened, about 200 (0.062%) were called active. Inconclusive means that the source gave no clear call. Such entries were picked first, then a sample of the others. Calls follow the shape of the dose curve; as a rule, active = well fitted activation curve with a large enough effect; inconclusive = small, poorly fitted or top-dose-only effect; inactive = no such curve, though single readings can be large or run the other way. No potency is given beside an inconclusive call; the fits are too rough. Potency is read from the fitted curve at half-maximal effect; tags tell the direction and shape of the fitted curve."}
{"test": "qHTS assay for re-activators of p53 using a Luc reporter; also: nearly all actives have a fitted effect of over 45% in size; as to activity change, positive = activation: % of control where 0% means no effect", "conditions": "H1299 p53-A138V BP100-luciferase reporter, luminescence, 24 h; series mostly up to 92.2 µM; activity change, positive = activation: at the top concentration", "how_it_was_run": "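p53-null H1299 cells stably carrying temperature-sensitive p53-A138V and a BP100-luciferase reporter were pinned with compounds (4-point, 1:5 series) and held 24 hrs at 37 deg C. Luminescence was read 10 min after detection reagent.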"}
{"compound": "CCOC(=O)c1[nH]c(C)c(C(=O)NCCC2=CCCCC2)c1C", "Potency": "inconclusive [activator, partial curve, poor fit]"}
{"compound": "CCc1ccc(NC(=O)c2ccccc2Br)cc1", "activity change, positive = activation": "inactive: 25.1%"}
{"compound": "Cc1ccc(NC(=O)NCCCCc2ccccc2)cc1", "Potency": "inconclusive [activator, single point]"}
{"compound": "Cc1ccc(Nc2cc(C)c3ccc(O)cc3n2)cc1C", "Potency": "inconclusive [activator, full curve, poor fit]"}
{"compound": "O=C(Nc1ccc2c(c1)OCO2)C1CC1(Cl)Cl", "note": "(stereo unspecified)", "Potency": "inconclusive [activator, partial curve, poor fit]"}
{"compound": "Cc1ccc(C(=O)CSc2ncn[nH]2)cc1", "Potency": "inconclusive [activator, partial curve, poor fit]"}
{"compound": "COc1cc(/C=N/NC(N)=O)ccc1OC(=O)c1ccc(C)cc1", "activity change, positive = activation": "inactive: 20.8%"}
{"compound": "CCOC(=O)C1=C(C)NC(C)=C(C(=O)OCC)C1c1ccc(O)cc1", "activity change, positive = activation": "inactive: -15.3%"}
{"compound": "Cc1ccc(C(=O)Nc2ccc3c(c2)ncn3C)cc1", "Potency": "inconclusive [activator, full curve, poor fit]"}
{"compound": "CN(C)S(=O)(=O)c1cccc(C(=O)NCCc2ccccc2)c1", "Potency": "inconclusive [activator, partial curve, poor fit]"}
{"compound": "COc1cccc(-c2nc3ccc(C(=O)N4CCCC(O)C4)cc3o2)c1", "note": "(stereo unspecified)", "Potency": "inconclusive [activator, full curve, poor fit]"}
{"compound": "CCOc1ccc2nc(C)cc(C(=O)O)c2c1", "activity change, positive = activation": "inactive: 1.5%"}
{"compound": "CC(C)(CN1CCCC1)NS(=O)(=O)c1ccc(Cl)cc1", "activity change, positive = activation": "inactive: -4.16%"}
{"compound": "CCCn1nnc(NC(=O)c2ccc(Br)o2)n1", "Potency": "inconclusive [activator, partial curve, poor fit]"}
{"compound": "COc1ccc(C2/C(=C(/O)c3ccc(F)cc3)C(=O)C(=O)N2c2ccccn2)cc1OC", "note": "(stereo unspecified)", "activity change, positive = activation": "inactive: 2.78%"}
{"compound": "CCOC(=O)c1cnc2c(-c3ccccc3)cnn2c1N", "Potency": "inconclusive [activator, partial curve, poor fit]"}
{"compound": "CCC(=O)n1nc(-c2ccc(Cl)cc2)nc1SC", "Potency": "inconclusive [activator, partial curve, poor fit]"}
{"compound": "CNS(=O)(=O)c1ccc(NC(=O)Nc2ccc3c(c2)OCO3)cc1", "Potency": "inconclusive [activator, partial curve, poor fit]"}
{"compound": "COc1ccc(-c2nc(N=Nc3ccc(O)cc3)n[nH]2)cc1", "activity change, positive = activation": "inactive: 2.94%"}
{"compound": "Cc1csc(NC(=O)CSc2nnc(-c3ccccc3)o2)n1", "Potency": "inconclusive [activator, partial curve, poor fit]"}
{"compound": "COc1cccc2oc(-c3ccco3)cc(=O)c12", "Potency": "inconclusive [activator, partial curve, poor fit]"}
{"compound": "CCn1c(=S)sc2c(=O)n(CC(=O)Nc3ccccc3)c(C)nc21", "activity change, positive = activation": "inactive: -6.25%"}
{"compound": "O=[N+]([O-])c1nn(-c2ccc3c(c2)OCCO3)n(O)c1=NCc1ccccc1Cl", "Potency": "inconclusive [activator, full curve, poor fit]"}
{"compound": "c1coc(CSSCc2ccco2)c1", "Potency": "inconclusive [activator, single point]"}
{"compound": "O=C(Nc1nccs1)c1ccc2c(c1)OCO2", "Potency": "inconclusive [activator, partial curve, poor fit]"}
{"compound": "Cc1c(Cl)c([N+](=O)[O-])nn1CCCC(=O)NC1CCCCC1", "Potency": "inconclusive [activator, partial curve, poor fit]"}
{"compound": "Cc1cccc(-c2nc(CN3CCCC(C(=O)NC4CCC(C)CC4)C3)c(C)o2)c1", "note": "(stereo unspecified)", "activity change, positive = activation": "inactive: -2.11%"}
{"compound": "CC(=O)CSc1nsc(SCC(C)=O)c1C#N", "Potency": "inconclusive [activator, partial curve, poor fit]"}
{"compound": "COc1cc(C(=O)O/N=C(\\N)c2cccc([N+](=O)[O-])c2)cc(OC)c1OC", "activity change, positive = activation": "inactive: 19.3%"}
{"compound": "Cc1ccsc1C(=O)N/N=C/c1ccc([N+](=O)[O-])cc1", "Potency": "inconclusive [activator, partial curve, poor fit]"}
{"compound": "O=C(CNc1cccc(F)c1)N1CCc2ccccc2C1", "Potency": "inconclusive [activator, partial curve, poor fit]"}
{"compound": "Cc1cc(C(=O)Nc2ccc(N3CCOCC3)c(Cl)c2)c(C)o1", "activity change, positive = activation": "inactive: 3.82%"}
{"compound": "Cc1ccc(C(=O)Nc2ccc(Cl)cn2)cc1S(=O)(=O)N1CCOCC1", "Potency": "inconclusive [activator, single point]"}
{"compound": "CCOC(=O)C1CCCN(C2CC(=O)N(c3ccc(N4C(=O)CC(N5CCCC(C(=O)OCC)C5)C4=O)cc3)C2=O)C1", "note": "(stereo unspecified)", "activity change, positive = activation": "inactive: -2.43%"}
{"compound": "CS(=O)(=O)Nc1cccc(-c2cnc3ccccc3n2)c1", "Potency": "inconclusive [activator, partial curve, poor fit]"}
{"compound": "O=C(NCCCn1ccnc1)c1cc(-c2cccnc2)nc2ccc(Br)cc12", "activity change, positive = activation": "inactive: -4.32%"}
{"compound": "COc1ccc(/C=C/C(=O)NCC(=O)N/N=C(/C)c2ccc(Cl)cc2)cc1", "Potency": "inconclusive [activator, single point]"}
{"compound": "CCOc1cc(CNCCCN2CCOCC2)cc(Br)c1OCc1ccccc1Cl", "activity change, positive = activation": "inactive: -6.5%"}
{"compound": "O=C(c1ccccc1Br)N1CCn2c1nc1ccccc12", "Potency": "inconclusive [activator, single point]"}
{"compound": "Cn1cc([N+](=O)[O-])c(C(=O)NNC(=O)c2ccc([N+](=O)[O-])cc2Cl)n1", "activity change, positive = activation": "inactive: 7.47%"}
{"compound": "Cc1nnc(C)n1/N=C/c1cccn1C", "activity change, positive = activation": "inactive: 2.17%"}
{"compound": "COc1ccccc1-c1nnc(SCC(=O)N2CCOCC2)o1", "Potency": "inconclusive [activator, partial curve, poor fit]"}
{"compound": "c1ccc(-n2nnc3c(N4CCOCC4)ncnc32)cc1", "activity change, positive = activation": "inactive: 1.52%"}
{"compound": "COc1ncccc1-c1nnn(-c2ccc(C)cc2)n1", "Potency": "inconclusive [activator, partial curve, poor fit]"}
{"compound": "COCCn1c(C)cc(C(=O)CN2C(=O)NC3(CCCCCCC3)C2=O)c1C", "Potency": "inconclusive [activator, partial curve, poor fit]"}
{"compound": "O=C(CSc1nnc(-c2cccs2)o1)N1CCOCC1", "Potency": "inconclusive [activator, single point]"}
{"compound": "O=C(/C=C/c1ccccc1Cl)NNC(=O)c1ccncc1", "activity change, positive = activation": "inactive: 12%"}
{"compound": "CCCCN(CC)CCCNC(=O)c1cc2c(=O)n(CC)c3ccccc3c2s1", "activity change, positive = activation": "inactive: 2.58%"}
{"compound": "CCOC(=O)c1cc2c(=O)n3ccccc3nc2n(CCCOC)c1=NC(=O)C(C)(C)C", "activity change, positive = activation": "inactive: -6.94%"}
{"compound": "CCn1c(=O)c(C(=O)Nc2ccccc2S(N)(=O)=O)c(O)c2ccccc21", "Potency": "inconclusive [activator, full curve, poor fit]"}
{"compound": "CC(C)c1ccc(NC(=S)N2CCCC2)cc1", "Potency": "inconclusive [activator, partial curve, poor fit]"}
{"compound": "Cc1cccc(NC(=O)Cn2c(/C=C/c3ccccc3)nc3ccccc32)c1", "Potency": "inconclusive [activator, partial curve, poor fit]"}
{"compound": "Cc1c(C)n(CCc2ccccc2)c2ncnc(NN)c12", "Potency": "inconclusive [activator, single point]"}
{"compound": "O=C(COC(=O)c1ccccc1O)NCCC1=CCCCC1", "activity change, positive = activation": "inactive: 2.92%"}
{"compound": "Nc1cc2nn(-c3ccccc3)nc2cc1Cl", "Potency": "inconclusive [activator, partial curve, poor fit]"}
{"compound": "COc1cc2[nH]c(=O)n(CCC(=O)NCCCN3CCN(c4ccccc4F)CC3)c(=O)c2cc1OC", "activity change, positive = activation": "inactive: -0.295%"}
{"compound": "CCOC(=O)c1c(C)[nH]c(C2=NNC(=Nc3ccccc3)SC2)c1C", "Potency": "inconclusive [activator, partial curve, poor fit]"}
{"compound": "c1ccc2c(c1)oc1c(Nc3ccc4c(c3)OCCO4)ncnc12", "activity change, positive = activation": "inactive: 8.71%"}
{"compound": "O=C(Nc1cccc(C(F)(F)F)c1)c1cc(-c2cccs2)on1", "Potency": "inconclusive [activator, partial curve, poor fit]"}
{"compound": "Cc1ccc2c(CN(C)Cc3ccccc3)cc(=O)oc2c1C", "Potency": "inconclusive [activator, full curve, poor fit]"}
{"compound": "CCOc1ccc(C(=O)Cc2cc3cccc(OC)c3oc2=O)cc1", "Potency": "inconclusive [activator, single point]"}
{"compound": "COc1ccc(C(=O)CN2C(=O)c3ccccc3C2=O)c(OC)c1C", "Potency": "inconclusive [activator, single point]"}
{"compound": "CCCCn1c(CNC(=O)CC)nc2ccccc21", "activity change, positive = activation": "inactive: -6.94%"}
{"compound": "O=C(COC(=O)c1ccc(NS(=O)(=O)c2cccs2)cc1)NCC1CCCO1", "note": "(stereo unspecified)", "Potency": "inconclusive [activator, single point]"}
{"compound": "CCCn1cnc2c(sc3nc4c(cc32)CSC(C)(C)C4)c1=O", "Potency": "inconclusive [activator, partial curve, poor fit]"}
{"compound": "CC(=O)n1cc(/C=N/NC(=O)c2cccc(O)c2)c2ccccc21", "Potency": "inconclusive [activator, single point]"}
{"compound": "O=C(N/N=C/c1c(Cl)cccc1Cl)c1cccc(F)c1", "activity change, positive = activation": "inactive: 7.36%"}
{"compound": "Cc1cc(C)cc(NC(=O)Cn2c(=O)oc3cc(S(=O)(=O)N4CCC(C)CC4)ccc32)c1", "activity change, positive = activation": "inactive: -1%"}
{"compound": "O=C(Cc1cccs1)Nc1ccc(-c2nc3ccccc3[nH]2)cc1", "activity change, positive = activation": "inactive: 19%"}
{"compound": "CN(C)CCN(C(=O)c1ccc(C(=O)c2ccccc2)cc1)c1nc2cc3c(cc2s1)OCCO3", "Potency": "inconclusive [activator, full curve, poor fit]"}
{"compound": "Cc1ccc(NC(=O)CSc2nc3ccccc3c(=O)n2Cc2cccs2)cc1", "Potency": "inconclusive [activator, full curve, poor fit]"}
